The source of these data is ChEMBL document CHEMBL4888484, “Replenishing the malaria drug discovery pipeline: Screening and hit evaluation of the MMV Hit Generation Library 1 (HGL1) against asexual blood stage Plasmodium falciparum ,using a nano luciferase reporter read-out” (2022).

The term % Inhibition denotes the change of the read-out against control, counted positive when it falls.

Hit rate of the full screen: of about 150,000 compounds, about 540 (0.36%) showed an effect of 50% or more. Some of the results follow.

In this experiment the test system is Plasmodium falciparum. Briefly: Primary screen in NF54 nanoGlo assay, in single point, at 2uM, 72h; a lower Z score goes with more inhibition. To be noted: timepoint 72 hour. The experiment is classed as functional, Erythrocyte.
Turning to `Cc1cc(C(=O)NCCn2nnc3ccccc3c2=O)[nH]n1`, the “% Inhibition” value is -20% and the Z score stood at 3.37.

As to `O=C1NCCOCCN(C(=O)c2ccc3ccccc3n2)[C@H]2CCC[C@@H]12`, the “% Inhibition” value is recorded as -7% and the Z score was 0.98.

Take `Cc1c(Cl)c(C(=O)NC[C@H](c2cccnc2)C(C)C)nn1C`: the “% Inhibition” value is listed as -7% and the Z score was 0.97.

Regarding `C#CC(C)NC(=O)C1(C(F)(F)F)CCN(C(=O)OC(C)(C)C)C1` (centres undefined), the “% Inhibition” value was -15% and the Z score worked out at 2.4.

As for `N#Cc1ccc(COc2cccc(-n3cncn3)c2)cc1`, the “% Inhibition” value turned out to be 2% and the Z score is given as -0.41.

`CN(CC1CCOCC1)C(=O)C1CCC1`: the “% Inhibition” value is reported as -3% and the Z score is 0.54.

As to `CCCCNC(=O)N(C)CCc1c[nH]cn1`, the “% Inhibition” value is reported as 0% and the Z score was found to be 0.06.

Regarding `Cc1csc(CN(C)C(=O)c2c(C)n[nH]c2C2CC2)n1`, the “% Inhibition” value was -3% and the Z score stood at 0.61.

On to `c1cc2c(cc1-c1nnc3n1CCCC[C@H]3C1CCOCC1)OCCO2`, for which the “% Inhibition” value stood at 2% and the Z score is recorded as -0.25.

In the case of `CN(C)c1cc(Cl)c2nonc2c1N`, the “% Inhibition” value is recorded as -2% and the Z score was determined as 0.21.

As for `Cc1c(C(=O)N2CCCCCCC2)cnn1CCC#N`, the “% Inhibition” value is -7% and the Z score is reported as 1.37.

In the case of `O=C(NCc1cc(O)ncn1)c1ccc2c(c1)n(CC1CC1)c(=O)n2C1CCCCC1`, the “% Inhibition” value is listed as -2% and the Z score was determined as 0.42.

For the molecule `Cc1cnc(C(=O)N2CC3OCCN(Cc4ccccc4)C3C2)cn1` (centres undefined), the “% Inhibition” value is given as -11% and the Z score is on record as 0.91.

Regarding `CCc1nc(C)c(C(=O)N2C[C@H]3C[C@H](c4ccccc4)CC[C@@]3(C(=O)O)C2)o1`, the “% Inhibition” value is on record as 0% and the Z score was -0.02.

`CCOC1CC(NC(=O)N2Cc3cnn(C)c3CC(C)(C)C2)C1n1cccn1` (centres undefined): the “% Inhibition” value worked out at 0% and the Z score is listed as 0.07.

As to `CCn1nc(C)c(NS(=O)(=O)c2cccc3ccn(C)c23)c1C`, the “% Inhibition” value turned out to be 6% and the Z score is reported as -0.7.

In the case of `CC(=O)Nc1nc(C(=O)NCC2CCCCC2)cs1`, the “% Inhibition” value is listed as -13% and the Z score is reported as 2.01.

In the case of `Cc1c[nH]c(CN(Cc2cocn2)Cc2cocn2)c(C)c1=O`, the “% Inhibition” value is listed as -15% and the Z score is 1.73.

On to `COc1ccc(-c2ncnc3[nH]cnc23)c(OC)c1OC`, for which the “% Inhibition” value is 9% and the Z score is -1.15.

On to `C[C@H]1CCCCN1S(=O)(=O)c1cccc(C(=O)Nc2ccsc2)c1`, for which the “% Inhibition” value is -10% and the Z score amounted to 0.99.

As to `CC(C)N1C[C@H](NC2CCCCCCC2)C[C@H]1C(=O)NCCc1ccccc1F`, the “% Inhibition” value was 2% and the Z score was -0.3.

For the molecule `O=C1CC2(CCN(c3ccncc3F)CC2)CN1Cc1ccc(F)c(F)c1`, the “% Inhibition” value is -6% and the Z score was found to be 0.71.

Regarding `CO[C@H]1CCCN(C(=O)NCCc2cc(C)no2)CC1`, the “% Inhibition” value worked out at 5% and the Z score is -0.88.

For `O=C(c1cnc(C2CC2)nc1)N(Cc1ccccc1)Cc1ccccc1`, the “% Inhibition” value is recorded as -9% and the Z score stood at 1.11.

Take `Cc1ccc(-c2noc(-c3sccc3S(=O)(=O)N(C)c3ccc(C)c(C)c3)n2)cc1`: the “% Inhibition” value was -13% and the Z score was 1.68.

Consider `O=C(O)CNC(=O)CN1CCN(Cc2ccccc2)C2(CCCCC2)C1`, for which the “% Inhibition” value is listed as -8% and the Z score came out at 0.94.

Consider `O=C1N[C@@](CCc2ccccc2)(C2CCNCC2)C(=O)N1Cc1cncs1`, for which the “% Inhibition” value was -4% and the Z score turned out to be 0.8.

In the case of `Cc1ccccc1[C@@H](CC(=O)N1CCC(O)(Cn2ccnc2)CC1)c1ccccc1`, the “% Inhibition” value was -4% and the Z score was found to be 0.68.

As for `CCOCCN[C@@H](C)c1cc2n(n1)CCC2`, the “% Inhibition” value is on record as -1% and the Z score was determined as 0.19.

For `CCCOc1cc(S(=O)(=O)N(C)C)ccc1Br`, the “% Inhibition” value is 0% and the Z score is on record as 0.06.

In the case of `Cn1cccc1C(=O)C(=O)N1CCN(c2cccc(C(F)(F)F)c2)CC1`, the “% Inhibition” value is -4% and the Z score was 0.37.

For `O=C(Cc1ccccc1)NCc1cnoc1-c1ccc(F)cc1`, the “% Inhibition” value amounted to 10% and the Z score is on record as -1.52.

Regarding `Cc1scc(C(=O)N(C)C2CCOC(c3ccc(F)cc3)C2)c1C` (centres undefined), the “% Inhibition” value was found to be 1% and the Z score is given as -0.23.

On to `NC[C@H]1CN(Cc2cc(=O)c3cccc(Cl)c3[nH]2)CCO1`, for which the “% Inhibition” value came out at 1% and the Z score is -0.15.

In the case of `Cc1csc(NC(=O)[C@@H]2CCC[C@@H](N(C)C)CN(C)C(=O)C2)n1`, the “% Inhibition” value is -7% and the Z score worked out at 1.13.

Regarding `CN(CCCN1CCOCC1)c1cc(C#N)ccn1`, the “% Inhibition” value came to 0% and the Z score is recorded as 0.03.

`CC(C)[C@H](C)NC(=O)c1cccnc1O`: the “% Inhibition” value is reported as -4% and the Z score came to 0.54.

`COc1cccc2c(C(=O)N3CC[C@H](O)C[C@@H]3C)n[nH]c12`: the “% Inhibition” value is reported as 8% and the Z score was -1.58.

As for `COc1ccccc1-c1ccnc(-n2ncc(C(=O)N3CC[C@H](N(C)C)C3)c2C)n1`, the “% Inhibition” value was found to be 3% and the Z score was -0.34.

Regarding `COc1cccc(CC2=NO[C@H](C(=O)N3CCN(c4ccccc4Cl)CC3)C2)c1`, the “% Inhibition” value is on record as 16% and the Z score is -1.98.

For the molecule `O=S(=O)(NC[C@H]1COCO1)c1cc(F)cc(Cl)c1`, the “% Inhibition” value is on record as -7% and the Z score came out at 0.77.

In the case of `N#Cc1c(NC(=O)CCN2CCN(S(=O)(=O)c3ccccc3F)CC2)sc2c1CCCCC2`, the “% Inhibition” value is listed as -1% and the Z score is 0.14.
